In all, about 150,000 compounds went through this assay and about 540 (0.36%) showed an effect of 50% or more. The list shows a part of the results.
What follows are molecules tested on Plasmodium falciparum (assay: Primary screen in NF54 nanoGlo assay, in single point, at 2uM, 72h; a lower Z score goes with more inhibition). Conditions: timepoint 72 hour.
Assay type: functional, Erythrocyte
In the case of `Cc1cc(Cl)cc(C#N)c1NC(=O)CCC(F)(F)F`, the “% Inhibition” value is reported as 5% and the Z score is reported as -1.01.
`O=C(Nc1nc2c(s1)CCC2)c1cnc2ccccc2n1` was tested, and the “% Inhibition” value was 2% and the Z score was -0.29.
`C[C@H](NS(=O)(=O)Cc1ccc(Br)cc1)c1ccccn1` was tested, and the “% Inhibition” value was -6% and the Z score was 1.33.
For `O=C(Nc1ccc(O)c(-c2nc3ccccc3s2)c1)c1ccc(Cc2ccccc2)cc1`, the “% Inhibition” value was -8% and the Z score was 1.33.
In the case of `CCS(=O)(=O)N1CC(=O)N(c2ccc(Cl)cc2)[C@](C)(C(=O)NCc2ccc(F)cc2)C1`, the “% Inhibition” value is reported as -5% and the Z score is reported as 0.7.
In the case of `CN1CCCN(c2nc(C(F)(F)F)nc3cc4c(cc23)OCO4)CC1`, the “% Inhibition” value is reported as -8% and the Z score is reported as 1.28.
For `c1cc(OCCc2ccc3c(c2)CCO3)cc(-c2nnco2)c1`, the “% Inhibition” value was -10% and the Z score was 1.02.
In the case of `C[C@H]1C(=O)N(C)CCN1c1nc(C2CC2)ns1`, the “% Inhibition” value is reported as -13% and the Z score is reported as 1.66.
`O=C(C1CCN(C2CCN(c3nc4ccccc4o3)CC2)CC1)N1CCc2[nH]ncc2C1` was tested, and the “% Inhibition” value was -22% and the Z score was 1.93.
For `Cc1ncc(C(=O)NCCCN(C)c2ccccc2)c(O)n1`, the “% Inhibition” value was -1% and the Z score was 0.08.
`COc1cccc(S(=O)(=O)N2CCN(C3CCCC3)CC2)c1` was tested, and the “% Inhibition” value was -5% and the Z score was 0.58.
`Cc1cccc(-c2ccccc2C(=O)N2CCN(C3CCN(C)CC3)CC2)c1` was tested, and the “% Inhibition” value was -12% and the Z score was 2.22.
For `Cc1ccc(C(=O)CCNc2ccc(C(=O)N3CCCCC3)cc2)cc1`, the “% Inhibition” value was -17% and the Z score was 1.96.
For `CCN1CC[C@@]2(CCC1=O)CN(Cc1c(C)ccc3ncccc13)CCN2C`, the “% Inhibition” value was 10% and the Z score was -2.02.
In the case of `Cc1ccc(C(=O)NC[C@H]2Cn3ccnc3CO2)cc1`, the “% Inhibition” value is reported as -1% and the Z score is reported as 0.07.
With `COc1ccccc1-c1nnc(CN2CCS(=O)(=O)C[C@@H]2C)o1` the “% Inhibition” value was -8% and the Z score was 1.06.
For `c1ccc(O[C@H]2CCN(Cc3cnns3)C2)nc1`, the “% Inhibition” value was -4% and the Z score was 0.53.
With `CCOc1ccc(NC(=O)c2ccccc2NC(=O)C2CCCC2)cc1` the “% Inhibition” value was -18% and the Z score was 1.62.
In the case of `O=c1[nH]nc(Cc2ccc(O)cc2)n1C1CCCCC1`, the “% Inhibition” value is reported as -2% and the Z score is reported as 0.36.
For `c1ccc(NCc2nc3c(o2)CCCC3)cc1`, the “% Inhibition” value was -7% and the Z score was 1.2.
`O=C(CCN(c1nc(-c2ccco2)nc2ccccc12)C1CC1)N1CCOCC1` was tested, and the “% Inhibition” value was -18% and the Z score was 1.8.
In the case of `CN(C(=O)c1ccc(Oc2cccc(Cl)c2Cl)nc1)C1CCNCC1`, the “% Inhibition” value is reported as -11% and the Z score is reported as 1.6.
In the case of `COCCOCCS(=O)(=O)Nc1ccc2oc(CO)cc2c1`, the “% Inhibition” value is reported as -6% and the Z score is reported as 0.63.
In the case of `COC(C)CS(=O)(=O)NCC1CC(c2ccc(C)c(C)c2)=NO1` (stereo not given), the “% Inhibition” value is reported as 2% and the Z score is reported as -0.2.
For `COCCN1CC[C@H](CN(C)S(=O)(=O)c2ccc3c(c2)OCCCO3)C1`, the “% Inhibition” value was -3% and the Z score was 0.49.
`c1ccc(Cn2ccnc2CCNC(C2CC2)C2CC2)cc1` was tested, and the “% Inhibition” value was -10% and the Z score was 1.39.
In the case of `CCn1c(C(=O)NC2CCCC2)cc2cc(S(=O)(=O)N(C)C)ccc21`, the “% Inhibition” value is reported as -4% and the Z score is reported as 0.71.
In the case of `O=C(C(=Cc1cn(-c2ccccc2)nc1-c1ccc2c(c1)OCCO2)c1nc2ccccc2s1)c1ccccc1`, the “% Inhibition” value is reported as -23% and the Z score is reported as 3.68.
`O=C1CCCCCN1Cc1ccccc1` was tested, and the “% Inhibition” value was -6% and the Z score was 0.75.
In the case of `COCCn1cc(-c2cccc3c2CC(=O)N3)cn1`, the “% Inhibition” value is reported as 7% and the Z score is reported as -0.93.
`O=C(c1cccc(F)c1)N1CCC(OCc2nc(C3CC3)no2)CC1` was tested, and the “% Inhibition” value was -6% and the Z score was 0.8.
In the case of `COc1ccc(CC(=O)N2CCN(c3cc(-n4nc(C)cc4C)ncn3)CC2)cc1`, the “% Inhibition” value is reported as -12% and the Z score is reported as 1.71.
For `c1ccc(CCCO[C@H]2CCN(c3ncnc4nc[nH]c34)C2)cc1`, the “% Inhibition” value was -11% and the Z score was 1.61.
In the case of `O=C1NC(C2CC2)(C2CC2)C(=O)N1Cc1nc(C2CC2)no1`, the “% Inhibition” value is reported as 31% and the Z score is reported as -3.48.
In the case of `Cc1ccc(C(=O)NCc2ccc(F)cc2)c(C2CCN(Cc3ccco3)CC2)n1`, the “% Inhibition” value is reported as -5% and the Z score is reported as 0.53.
`C[C@@H](CNC(=O)c1ccsc1NC(=O)c1cccs1)CN1CCCCC1` was tested, and the “% Inhibition” value was -9% and the Z score was 1.62.
With `O=C(COCC(F)(F)C(F)F)NCCc1cnccn1` the “% Inhibition” value was -1% and the Z score was 0.09.
In the case of `O=C(NCCCc1nc(-c2ccccn2)cs1)[C@@H]1COCCO1`, the “% Inhibition” value is reported as -11% and the Z score is reported as 2.25.
`NC(=O)c1c(NC(=O)CN2CCCC3CCCCC32)sc2c1CCC2` (stereo not given) was tested, and the “% Inhibition” value was -1% and the Z score was 0.14.
`O=C(Nc1cc(-c2nnc3n2CCCCC3)ccc1F)c1nc(-c2ccccc2)n(-c2ccccc2)n1` was tested, and the “% Inhibition” value was 9% and the Z score was -1.97.
`Cc1ccc(S(=O)(=O)c2c(NS(=O)(=O)c3ccc(Cl)cc3)n(-c3cc(C)cc(C)c3)c3nc4ccccc4nc23)cc1` was tested, and the “% Inhibition” value was -6% and the Z score was 0.5.
`CC(C)(C)n1ncc2c1NC(=O)C[C@@H]2C1=Cc2ccccc2OC1` was tested, and the “% Inhibition” value was 34% and the Z score was -3.82.
With `Cc1cc(O)c2c(C)nn(-c3ccccc3)c2n1` the “% Inhibition” value was -24% and the Z score was 2.85.
`O=C(NCc1ccc2c(c1)CCN2C(=O)c1ccccc1)NC[C@H]1CCCO1` was tested, and the “% Inhibition” value was -9% and the Z score was 1.68.
For `Cc1cccc(C)c1NC(=O)[C@H](C)N(C)CCc1nccs1`, the “% Inhibition” value was 3% and the Z score was -0.32.
`CCN1Cc2ccccc2CC1CN1CCC(COC)C1` (stereo not given) was tested, and the “% Inhibition” value was -8% and the Z score was 1.21.
In the case of `CCCS(=O)(=O)N(CCOC)CC(=O)N(Cc1ccc(Cl)cc1)C1CCN(S(=O)(=O)c2ccc(Cl)cc2)CC1`, the “% Inhibition” value is reported as 15% and the Z score is reported as -2.14.
With `Cc1ccc(-c2nc3ccc(Cl)cn3c2Nc2ccc3c(c2)OCCO3)s1` the “% Inhibition” value was -2% and the Z score was 0.31.
With `O=C(COc1ccccc1)Nc1cccc(-c2cc3c(o2)CCN(C(=O)c2cccc4ccccc24)C3)c1` the “% Inhibition” value was -10% and the Z score was 2.01.
In the case of `NS(=O)(=O)c1cc(Cl)cc(CN2CC[C@]3(CNC(=O)C3)C2)c1`, the “% Inhibition” value is reported as -5% and the Z score is reported as 0.72.
In the case of `CCOc1cccc2c1O[C@]1(C)C[C@@H]2NC(=O)N1c1ccc(F)cc1`, the “% Inhibition” value is reported as 1% and the Z score is reported as -0.17.
For `COCCC[C@]1(C(=O)O)CCCN(C(=O)c2cc3c(cc2OC)CCC3)C1`, the “% Inhibition” value was -10% and the Z score was 1.12.
In the case of `C[C@@H](Cn1cccn1)C(=O)NC1(C(N)=O)CCCC1`, the “% Inhibition” value is reported as 0% and the Z score is reported as 0.
In the case of `Cc1nc2c(c(-c3ccc(S(C)(=O)=O)cc3)n1)CCC2`, the “% Inhibition” value is reported as 0% and the Z score is reported as 0.01.
`CCN(CC(=O)Nc1ccc2c(c1)OCCO2)C(=O)c1ccc2c(c1)C(=O)N(Cc1ccccc1)C2=O` was tested, and the “% Inhibition” value was 6% and the Z score was -0.87.
In the case of `Cc1cn(Cc2nc(-c3cccnc3)n[nH]2)c(=O)[nH]c1=O`, the “% Inhibition” value is reported as -14% and the Z score is reported as 2.68.
With `COc1cc(C(=O)N(C)C2CCCCCCC2)cc(OC)c1OCC(N)=O` the “% Inhibition” value was -4% and the Z score was 0.69.
In the case of `CCc1nc(CN(C)Cc2sccc2C)n[nH]1`, the “% Inhibition” value is reported as -11% and the Z score is reported as 1.79.
In the case of `C[N+]12CCCC[C@@H]1[C@H](COC(=O)c1ccccc1Cl)CCC2` (stereo not given in full), the “% Inhibition” value is reported as 7% and the Z score is reported as -0.65.
`COCCCn1cnnc1[C@H](C)NCc1cnc(-c2cccc(C)c2)nc1` was tested, and the “% Inhibition” value was -1% and the Z score was 0.17.
`CCOC(=O)c1cc(-c2ccc(OC)cc2)n(C2CCN(C(=O)c3cccc(OC)c3)CC2)n1` was tested, and the “% Inhibition” value was 25% and the Z score was -3.38.
`Cc1cc(S(=O)(=O)N(CCO)CCO)ccc1F` was tested, and the “% Inhibition” value was -22% and the Z score was 2.63.
For `NC1CC2CC(C(=O)NCCc3ccc4ncccc4c3)CC12` (stereo not given), the “% Inhibition” value was -15% and the Z score was 2.11.
For `C#CC[C@H](CC(F)(F)F)NC(=O)c1ccncc1F`, the “% Inhibition” value was -14% and the Z score was 2.06.
With `O=C1CN(C(=O)c2ccc(OC3CCC3)cc2Cl)CCN1CC(F)(F)F` the “% Inhibition” value was -7% and the Z score was 1.
With `COC(=O)N[C@@H](C)c1nc(-c2cccnn2)no1` the “% Inhibition” value was -12% and the Z score was 1.15.
With `O=C(Cc1cccc(F)c1)N1CC2CC1CS2(=O)=O` (stereo not given) the “% Inhibition” value was -17% and the Z score was 1.96.
`Nc1nc(-c2cnc3ccccc3c2)cc2nncn12` was tested, and the “% Inhibition” value was -5% and the Z score was 0.88.
`O=C(Nc1nc(-c2cc(F)ccc2F)cs1)C1(n2cnnn2)CCOCC1` was tested, and the “% Inhibition” value was -5% and the Z score was 0.76.
In the case of `O=C(c1ccc2nc(-c3ccc(F)cc3)cn2c1)N1CCC(O)CC1`, the “% Inhibition” value is reported as -3% and the Z score is reported as 0.59.
For `Cc1c(Br)cccc1C(=O)NCCCc1nc(=O)[nH][nH]1`, the “% Inhibition” value was -8% and the Z score was 0.84.
In the case of `C[C@@H]1CCC[C@H](C)N1Cc1nnc(-c2ccco2)o1`, the “% Inhibition” value is reported as -13% and the Z score is reported as 1.81.
For `c1cnc(-c2nc(Cn3cc([C@H]4CCOC4)nn3)cs2)nc1`, the “% Inhibition” value was 6% and the Z score was -0.99.
`Cc1csc([C@H](C)NS(=O)(=O)N2CCN(C)CC2)n1` was tested, and the “% Inhibition” value was -4% and the Z score was 0.71.
`Cc1cnccc1-c1ccc(C(=O)N2CC(C)(CO)C2)s1` was tested, and the “% Inhibition” value was -2% and the Z score was 0.32.
With `c1cc2c(c(OCc3ncc(C4CC4)o3)c1)OCCO2` the “% Inhibition” value was -7% and the Z score was 0.88.
For `Cc1nc(C#N)cc(N[C@H]2CCC[C@H]2Cn2ccnn2)n1`, the “% Inhibition” value was -7% and the Z score was 0.76.
For `COCCOC1COCCC1NC(=O)N1CCCCO1` (stereo not given), the “% Inhibition” value was -17% and the Z score was 1.69.
In the case of `Cc1nc(CCN(C)C(=O)NC[C@H]2CCCN2C(C)C)no1`, the “% Inhibition” value is reported as -8% and the Z score is reported as 1.41.
`CCO[C@H]1CN(C(=O)Cc2noc3ccccc23)C[C@@H]1O` was tested, and the “% Inhibition” value was -9% and the Z score was 1.36.
`COc1ccc2c(c1)O[C@@H](C)CN(CCC(=O)N1CCOCC1)C2` was tested, and the “% Inhibition” value was -9% and the Z score was 1.58.
For `C[C@]1(NC(=O)Nc2cccc3ccsc23)CCOC1`, the “% Inhibition” value was -5% and the Z score was 0.7.
With `CC(C)N1CCN(Cc2ccc(C3CCCC3)s2)C[C@@H]1CCO` the “% Inhibition” value was -9% and the Z score was 1.16.
For `CO[C@H]1C[C@@H](O)C12CCN(c1nc(C)cc(C3CCC3)n1)CC2`, the “% Inhibition” value was 3% and the Z score was -0.62.
With `Cc1nn(-c2ccc3nncn3n2)c2c1[C@@H](c1ccc(C#N)cc1)CC(O)=N2` the “% Inhibition” value was -3% and the Z score was 0.5.

From ChEMBL document CHEMBL4888484, “Replenishing the malaria drug discovery pipeline: Screening and hit evaluation of the MMV Hit Generation Library 1 (HGL1) against asexual blood stage Plasmodium falciparum ,using a nano luciferase reporter read-out” (2022)
